Laboratory results: article PMC5651818, “VPS18 recruits VPS41 to the human HOPS complex via a RING–RING interaction” (Biochemical Journal, 2017)
These are yes or no findings as the source states them, for the method shown. Binding seen in cells or lysates may run through a third protein. Some binding calls cover weakened binding; strength is not graded here. Tags and fused reporters may be left off the sequences shown.

T1: GST-tagged VPS41 RING domain (residues 778–854) (human) (UniProt P49754)
T1 sequence: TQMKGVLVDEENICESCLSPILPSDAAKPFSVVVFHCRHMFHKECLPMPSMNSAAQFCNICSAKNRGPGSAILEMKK

T2: GST-tagged VPS18 RING domain (residues 842–973) (human) (UniProt Q9P253)
T2 sequence: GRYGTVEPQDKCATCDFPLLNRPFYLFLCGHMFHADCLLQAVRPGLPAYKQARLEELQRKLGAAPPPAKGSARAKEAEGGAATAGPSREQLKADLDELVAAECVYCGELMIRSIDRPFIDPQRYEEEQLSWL


Legend:
[1] = biological target: T1, GST-tagged VPS41 RING domain (residues 778–854) (human); experiment: pull-down; 0.5 nmol purified GST-tagged bait on magnetic glutathione beads; prey myc-tagged, wheat germ cell-free expression reaction; 4°C, 60 min; 20 mM Tris, 200 mM NaCl, 0.1% NP-40, 1 mM DTT, 1 mM EDTA; anti-myc immunoblot; only the target purified
[2] = biological target: T2, GST-tagged VPS18 RING domain (residues 842–973) (human); experiment: as above

| binding [1] | binding [2] | Binder |
| --- | --- | --- |
| no binding | – | myc-tagged VPS18 with the C-terminal RING domain removed (residues 1–841) (domain or fragment, UniProt Q9P253 1-841) MASILDEYENSLSRSAVLQPGCPSVGIPHSGYVNAQLEKEVPIFTKQRIDFTPSERITSLVVSSNQLCMSLGKDTLLRIDLGKANEPNHVELGRKDDAKVHKMFLDHTGSHLLIALSSTEVLYVNRNGQKVRPLARWKGQLVESVGWNKALGTESSTGPILVGTAQGHIFEAELSASEGGLFGPAPDLYFRPLYVLNEEGGPAPVCSLEAERGPDGRSFVIATTRQRLFQFIGRAAEGAEAQGFSGLFAAYTDHPPPFREFPSNLGYSELAFYTPKLRSAPRAFAWMMGDGVLYGALDCGRPDSLLSEERVWEYPEGVGPGASPPLAIVLTQFHFLLLLADRVEAVCTLTGQVVLRDHFLEKFGPLKHMVKDSSTGQLWAYTERAVFRYHVQREARDVWRTYLDMNRFDLAKEYCRERPDCLDTVLAREADFCFRQRRYLESARCYALTQSYFEEIALKFLEARQEEALAEFLQRKLASLKPAERTQATLLTTWLTELYLSRLGALQGDPEALTLYRETKECFRTFLSSPRHKEWLFASRASIHELLASHGDTEHMVYFAVIMQDYERVVAYHCQHEAYEEALAVLARHRDPQLFYKFSPILIRHIPRQLVDAWIEMGSRLDARQLIPALVNYSQGGEVQQVSQAIRYMEFCVNVLGETEQAIHNYLLSLYARGRPDSLLAYLEQAGASPHRVHYDLKYALRLCAEHGHHRACVHVYKVLELYEEAVDLALQVDVDLAKQCADLPEEDEELRKKLWLKIARHVVQEEEDVQTAMACLASCPLLKIEDVLPFFPDFVTIDHFKEAICSSLKAYNHHIQELQREMEEATASAQRIRRDLQELR |
| – | no binding | myc-tagged full-length VPS8 (protein, UniProt Q8N3P4-3 1-1426) MENEPDHENVEQSLCAKTSEEELNKSFNLEASLSKFSYIDMDKELEFKNDLIDDKEFDIPQVDTPPTLESILNETDDEDESFILEDPTLLNIDTIDSHSYDTSSVASSDSGDRTNLKRKKKLPDSFSLHGSVMRHSLLKGISAQIVSAADKVDAGLPTAIAVSSLIAVGTSHGLALIFDQNQALRLCLGSTSVGGQYGAISALSINNDCSRLLCGFAKGQITMWDLASGKLLRSITDAHPPGTAILHIKFTDDPTLAICNDSGGSVFELTFKRVMGVRTCESRCLFSGSKGEVCCIEPLHSKPELKDHPITQFSLLAMASLTKILVIGLKPSLKVWMTFPYGRMDPSSVPLLAWHFVAVQNYVNPMLAFCRGDVVHFLLVKRDESGAIHVTKQKHLHLYYDLINFTWINSRTVVLLDSVEKLHVIDRQTQEELETVEISEVQLVYNSSHFKSLATGGNVSQALALVGEKACYQSISSYGGQIFYLGTKSVYVMMLRSWRERVDHLLKQDCLTEALALAWSFHEGKAKAVVGLSGDASKRKAIVADRMVEILFHYADRALKKCPDQGKIQVMEQHFQDMVPVIVDYCLLLQRKDLLFSQMYDKLSENSVAKGVFLECLEPYILSDKLVGITPQVMKDLIVHFQDKKLMENVEALIVHMDITSLDIQQVVLMCWENRLYDAMIYVYNRGMNEFISPMEKLFRVIAPPLNAGKTLTDEQVVMGNKLLVYISCCLAGRAYPLGDIPEDLVPLVKNQVFEFLIRLHSAEASPEEEIYPYIRTLLHFDTREFLNVLALTFEDFKNDKQAVEYQQRIVDILLKVMVENSDFTPSQVGCLFTFLARQLAKPDNTLFVNRTLFDQVLEFLCSPDDDSRHSERQQVLLELLQAGGIVQFEESRLIRMAEKAEFYQICEFMYEREHQYDKIIDCYLRDPLREEEVFNYIHNILSIPGHSAEEKQSVWQKAMDHIEELVSLKPCKAAELVATHFSGHIETVIKKLQNQVLLFKFLRSLLDPREGIHVNQELLQISPCITEQFIELLCQFNPTQVIETLQVLECYRLEETIQITQKYQLHEVTAYLLEKKGDIHGAFLIMLERLQSKLQEVTHQGENTKEDPSLKDVEDTMVETIALCQRNSHNLNQQQREALWFPLLEAMMAPQKLSSSAIPHLHSEALKSLTMQVLNSMAAFIALPSILQRILQDPVYGKGKLGEIQGLILGMLDTFNYEQTLLETTTSLLNQDLHWSLCNLRASVTRGLNPKQDYCSICLQQYKRRQEMADEIIVFSCGHLYHSFCLQNKECTVEFEGQTRWTCYKCSSSNKVGKLSENSSEIKKGRITPSQVKMSPSYHQSKGDPTAKKGTSEPVLDPQQIQAFDQLCRLYRGSSRLALLTELSQNRSSESYRPFSGSQSAPAFNSIFQNENFQLQLIPPPVTED |
| no binding | no binding | myc-tagged full-length VPS11 (protein, UniProt Q9H270 1-941) MAAYLQWRRFVFFDKELVKEPLSNDGAAPGATPASGSAASKFLCLPPGITVCDSGRGSLVFGDMEGQIWFLPRSLQLTGFQAYKLRVTHLYQLKQHNILASVGEDEEGINPLVKIWNLEKRDGGNPLCTRIFPAIPGTEPTVVSCLTVHENLNFMAIGFTDGSVTLNKGDITRDRHSKTQILHKGNYPVTGLAFRQAGKTTHLFVVTTENVQSYIVSGKDYPRVELDTHGCGLRCSALSDPSQDLQFIVAGDECVYLYQPDERGPCFAFEGHKLIAHWFRGYLIIVSRDRKVSPKSEFTSRDSQSSDKQILNIYDLCNKFIAYSTVFEDVVDVLAEWGSLYVLTRDGRVHALQEKDTQTKLEMLFKKNLFEMAINLAKSQHLDSDGLAQIFMQYGDHLYSKGNHDGAVQQYIRTIGKLEPSYVIRKFLDAQRIHNLTAYLQTLHRQSLANADHTTLLLNCYTKLKDSSKLEEFIKKKSESEVHFDVETAIKVLRQAGYYSHALYLAENHAHHEWYLKIQLEDIKNYQEALRYIGKLPFEQAESNMKRYGKILMHHIPEQTTQLLKGLCTDYRPSLEGRSDREAPGCRANSEEFIPIFANNPRELKAFLEHMSEVQPDSPQGIYDTLLELRLQNWAHEKDPQVKEKLHAEAISLLKSGRFCDVFDKALVLCQMHDFQDGVLYLYEQGKLFQQIMHYHMQHEQYRQVISVCERHGEQDPSLWEQALSYFARKEEDCKEYVAAVLKHIENKNLMPPLLVVQTLAHNSTATLSVIRDYLVQKLQKQSQQIAQDELRVRRYREETTRIRQEIQELKASPKIFQKTKCSICNSALELPSVHFLCGHSFHQHCFESYSESDADCPTCLPENRKVMDMIRAQEQKRDLHDQFQHQLKCSNDSFSVIADYFGRGVFNKLTLLTDPPTARLTSSLEAGLQRDLLMHSRRGT |
| binds | – | myc-tagged VPS18 RING domain alone (residues 842–973) (domain or fragment, UniProt Q9P253 842-973) GRYGTVEPQDKCATCDFPLLNRPFYLFLCGHMFHADCLLQAVRPGLPAYKQARLEELQRKLGAAPPPAKGSARAKEAEGGAATAGPSREQLKADLDELVAAECVYCGELMIRSIDRPFIDPQRYEEEQLSWL |
| binds | no binding | myc-tagged full-length VPS18 (protein, UniProt Q9P253 1-973) MASILDEYENSLSRSAVLQPGCPSVGIPHSGYVNAQLEKEVPIFTKQRIDFTPSERITSLVVSSNQLCMSLGKDTLLRIDLGKANEPNHVELGRKDDAKVHKMFLDHTGSHLLIALSSTEVLYVNRNGQKVRPLARWKGQLVESVGWNKALGTESSTGPILVGTAQGHIFEAELSASEGGLFGPAPDLYFRPLYVLNEEGGPAPVCSLEAERGPDGRSFVIATTRQRLFQFIGRAAEGAEAQGFSGLFAAYTDHPPPFREFPSNLGYSELAFYTPKLRSAPRAFAWMMGDGVLYGALDCGRPDSLLSEERVWEYPEGVGPGASPPLAIVLTQFHFLLLLADRVEAVCTLTGQVVLRDHFLEKFGPLKHMVKDSSTGQLWAYTERAVFRYHVQREARDVWRTYLDMNRFDLAKEYCRERPDCLDTVLAREADFCFRQRRYLESARCYALTQSYFEEIALKFLEARQEEALAEFLQRKLASLKPAERTQATLLTTWLTELYLSRLGALQGDPEALTLYRETKECFRTFLSSPRHKEWLFASRASIHELLASHGDTEHMVYFAVIMQDYERVVAYHCQHEAYEEALAVLARHRDPQLFYKFSPILIRHIPRQLVDAWIEMGSRLDARQLIPALVNYSQGGEVQQVSQAIRYMEFCVNVLGETEQAIHNYLLSLYARGRPDSLLAYLEQAGASPHRVHYDLKYALRLCAEHGHHRACVHVYKVLELYEEAVDLALQVDVDLAKQCADLPEEDEELRKKLWLKIARHVVQEEEDVQTAMACLASCPLLKIEDVLPFFPDFVTIDHFKEAICSSLKAYNHHIQELQREMEEATASAQRIRRDLQELRGRYGTVEPQDKCATCDFPLLNRPFYLFLCGHMFHADCLLQAVRPGLPAYKQARLEELQRKLGAAPPPAKGSARAKEAEGGAATAGPSREQLKADLDELVAAECVYCGELMIRSIDRPFIDPQRYEEEQLSWL |
| no binding | binds | myc-tagged full-length VPS41 (protein, UniProt P49754 1-854) MAEAEEQETGSLEESTDESEEEESEEEPKLKYERLSNGVTEILQKDAASCMTVHDKFLALGTHYGKVYLLDVQGNITQKFDVSPVKINQISLDESGEHMGVCSEDGKVQVFGLYSGEEFHETFDCPIKIIAVHPHFVRSSCKQFVTGGKKLLLFERSWMNRWKSAVLHEGEGNIRSVKWRGHLIAWANNMGVKIFDIISKQRITNVPRDDISLRPDMYPCSLCWKDNVTLIIGWGTSVKVCSVKERHASEMRDLPSRYVEIVSQFETEFYISGLAPLCDQLVVLSYVKEISEKTEREYCARPRLDIIQPLSETCEEISSDALTVRGFQENECRDYHLEYSEGESLFYIVSPRDVVVAKERDQDDHIDWLLEKKKYEEALMAAEISQKNIKRHKILDIGLAYINHLVERGDYDIAARKCQKILGKNAALWEYEVYKFKEIGQLKAISPYLPRGDPVLKPLIYEMILHEFLESDYEGFATLIREWPGDLYNNSVIVQAVRDHLKKDSQNKTLLKTLAELYTYDKNYGNALEIYLTLRHKDVFQLIHKHNLFSSIKDKIVLLMDFDSEKAVDMLLDNEDKISIKKVVEELEDRPELQHVYLHKLFKRDHHKGQRYHEKQISLYAEYDRPNLLPFLRDSTHCPLEKALEICQQRNFVEETVYLLSRMGNSRSALKMIMEELHDVDKAIEFAKEQDDGELWEDLILYSIDKPPFITGLLNNIGTHVDPILLIHRIKEGMEIPNLRDSLVKILQDYNLQILLREGCKKILVADSLSLLKKMHRTQMKGVLVDEENICESCLSPILPSDAAKPFSVVVFHCRHMFHKECLPMPSMNSAAQFCNICSAKNRGPGSAILEMKK |
